Residue numbers refer to the chain shown, from its start. Numbers in names are those of the source. Results are given in words; binding and its absence hold for the method and conditions named. Some results given as binding are weak or reduced against the parent protein; the word gives no strength. Blank lines part the entries; values can stand above or below the binder they belong to.
Key:
[1] = target: T1, MnmG from Escherichia coli, wild type (Escherichia coli, UniProt P0A6U3 1-629); test: SEC; gel filtration of the MnmEG complex (alpha2beta2 and alpha4beta2 forms) with Nb_MnmG_1 added in excess; both purified
T1 construct: tRNA uridine 5-carboxymethylaminomethyl modification enzyme MnmG (formerly GidA), Escherichia coli; open reading frame cloned in a pET14b vector; Homodimer of 70-kDa subunits; also called GidA; MnmG wt
T1 sequence (looked up): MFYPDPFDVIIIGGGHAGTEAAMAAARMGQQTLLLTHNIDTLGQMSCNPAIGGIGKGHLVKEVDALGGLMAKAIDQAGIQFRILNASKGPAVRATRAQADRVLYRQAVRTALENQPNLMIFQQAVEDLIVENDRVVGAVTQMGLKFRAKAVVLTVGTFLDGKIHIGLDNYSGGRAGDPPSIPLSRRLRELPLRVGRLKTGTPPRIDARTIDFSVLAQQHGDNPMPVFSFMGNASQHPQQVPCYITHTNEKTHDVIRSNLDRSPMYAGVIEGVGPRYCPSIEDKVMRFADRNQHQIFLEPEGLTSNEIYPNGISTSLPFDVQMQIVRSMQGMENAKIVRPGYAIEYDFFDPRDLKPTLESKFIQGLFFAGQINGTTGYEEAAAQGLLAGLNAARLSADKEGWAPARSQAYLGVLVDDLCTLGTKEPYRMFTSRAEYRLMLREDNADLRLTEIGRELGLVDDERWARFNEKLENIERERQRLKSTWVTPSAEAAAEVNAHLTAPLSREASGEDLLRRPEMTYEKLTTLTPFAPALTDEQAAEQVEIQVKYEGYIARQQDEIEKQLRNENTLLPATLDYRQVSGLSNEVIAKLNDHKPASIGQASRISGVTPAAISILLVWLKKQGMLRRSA

[2] = target: T1, MnmG from Escherichia coli, wild type; test: stopped-flow SAXS; MnmE and MnmG rapidly mixed at high protein concentration without GDP-AlFx; data not shown; both purified
[3] = target: T1, MnmG from Escherichia coli, wild type; test: stopped-flow SAXS; 32.5 uM MnmE and 32.5 uM MnmG rapidly mixed 1:1 with GDP-AlFx; 50-ms exposures at different times after mixing; both purified
[4] = target: T1, MnmG from Escherichia coli, wild type; test: SEC; analytical gel filtration (KW803, Shodex); MnmE incubated with 1 mM GDP-AlFx for 30 min, then mixed with MnmG (2:1 or 1:1); down to 5 uM protein; both purified
[5] = target: T1, MnmG from Escherichia coli, wild type; test: SEC; analytical gel filtration (KW803, Shodex), 1:1 mixture of MnmE and MnmG without nucleotides, 25 ul of 100 uM injected; 50 mM Hepes pH 7.5, 150 mM KCl, 5 mM MgCl2, 5 mM BME; both purified
[6] = target: MnmG (Y551A, R554A, E558A and R564A) (Escherichia coli) (UniProt P0A6U3); test: ITC; 278 K; 20 mM Hepes pH 7.5, 150 mM NaCl, 5 mM MgCl2, 2 mM BME, 1 mM FAD; variants: 700 uM MnmE in the syringe into 50 uM MnmG in the cell and vice versa; one site model; apparent; both purified
[7] = target: T1, MnmG from Escherichia coli, wild type; test: as above

binding [1]: binds | binding [2]: binds | binding [3]: binds | binding [4]: binds | binding [5]: binds weakly
B1: MnmE from Escherichia coli, wild type (enzyme, UniProt P25522 1-454, looked up)
chain: MSDNDTIVAQATPPGRGGVGILRISGFKAREVAETVLGKLPKPRYADYLPFKDADGSVLDQGIALWFPGPNSFTGEDVLELQGHGGPVILDLLLKRILTIPGLRIARPGEFSERAFLNDKLDLAQAEAIADLIDASSEQAARSALNSLQGAFSARVNHLVEALTHLRIYVEAAIDFPDEEIDFLSDGKIEAQLNDVIADLDAVRAEARQGSLLREGMKVVIAGRPNAGKSSLLNALAGREAAIVTDIAGTTRDVLREHIHIDGMPLHIIDTAGLREASDEVERIGIERAWQEIEQADRVLFMVDGTTTDAVDPAEIWPEFIARLPAKLPITVVRNKADITGETLGMSEVNGHALIRLSARTGEGVDVLRNHLKQSMGFDTNMEGGFLARRRHLQALEQAAEHLQQGKAQLLGAWAGELLAEELRLAQQNLSEITGEFTSDDLLGRIFSSFCIGK
notes: tRNA modification GTPase MnmE (formerly TrmE), Escherichia coli; open reading frame cloned in a pET20 vector; Homodimer of about 50-kDa subunits; Used nucleotide-free, with GDP-AlFx or with GppNHp depending on the experiment; also called TrmE; MnmE wt
binding [6]: no binding (tested: 700 uM in the syringe, 50 uM in the cell)

B2: MnmE (N118A, K120A and D122A) (enzyme, UniProt P25522 1-454)
chain: B1 chain with N118A, K120A, D122A
binding [7]: no binding (tested: 700 uM in the syringe, 50 uM in the cell)

Source: paper PMC4027165, “SAXS analysis of the tRNA-modifying enzyme complex MnmE/MnmG reveals a novel interaction mode and GTP-induced oligomerization” (Nucleic Acids Research, 2014)
